Reference: the supplement of paper PMC4967469
pIC50: −log10 of the molar value. IC50 is the fitted dose that halves viability relative to control wells, and lower means more sensitive; fits outside the tested doses are given as limits. The AUC spans the tested range (256-fold, ending at the top dose) of the same fit; it is 1 without any effect and falls as sensitivity rises. A top dose marked as inferred was derived from the fitted curves, not read from the paper.

Compound: CCOc1cc2ncc(C#N)c(Nc3ccc(F)c(Cl)c3)c2cc1NC(=O)/C=C/CN(C)C [EKB-569]
Assay: Viability of human cancer cell lines after 72 h of drug (GDSC screen)
Details: top dose inferred
Procedure: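 Human cancer cell lines in 384-well plates, medium with 10% serum, drug for 72 h over a 256-fold dose range (nine 2-fold or five 4-fold steps up to the top dose). Adherent lines were fixed and stained with the nucleic acid dye Syto60, suspension lines read with resazurin; signal relative to control wells, capped at 0 and 100%. One two-parameter sigmoid per drug and line, fitted in a mixed model over all curves with the slope shared within a line.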

Point of comparison: “RCC-MF (kidney, adherent, top dose 2.5 µM)”, AUC 0.772. Against it:
- NCI-H838 (lung adenocarcinoma, adherent, top dose 2.5 µM) — higher, 0.986
- T-T (oesophagus, adherent, top dose 2.5 µM) — higher, 0.919
- GT3TKB (stomach, adherent, top dose 2.5 µM) — higher, 0.986
- CCK-81 (large intestine, adherent, top dose 20 µM) — lower, 0.103
- DB (B-cell lymphoma, suspension, top dose 2.5 µM) — higher, 0.848
- GI-ME-N (neuroblastoma, adherent, top dose 2.5 µM) — higher, 0.875
- DAN-G (pancreas, adherent, top dose 2.5 µM) — higher, 0.972
- EW-1 (Ewing sarcoma, semi-adherent, top dose 2.5 µM) — lower, 0.751
- P30-OHK (lymphoblastic leukaemia, suspension, top dose 2.5 µM) — lower, 0.428
- KP-2 (pancreas, adherent, top dose 2.5 µM) — higher, 0.896
- NCI-H2228 (lung adenocarcinoma, adherent, top dose 2.5 µM) — higher, 0.92
- SBC-5 (small cell lung carcinoma, adherent, top dose 2.5 µM) — higher, 0.992
- HMV-II (melanoma, adherent, top dose 2.5 µM) — higher, 0.915
- EW-18 (Ewing sarcoma, suspension, top dose 2.5 µM) — higher, 0.827
- WM278 (melanoma, adherent, top dose 2.5 µM) — higher, 0.982
- SK-MEL-3 (melanoma, adherent, top dose 2.5 µM) — higher, 0.925
- HCC2157 (breast, suspension, top dose 2.5 µM) — higher, 0.987
- SR (lymphoid neoplasm, suspension, top dose 2.5 µM) — lower, 0.584
- KYSE-450 (oesophagus, adherent, top dose 2.5 µM) — lower, 0.114
- U251 (glioma, adherent, top dose 2.5 µM) — higher, 0.917
- SU-DHL-6 (B-cell lymphoma, suspension, top dose 2.5 µM) — lower, 0.572
- SU-DHL-10 (B-cell lymphoma, suspension, top dose 2.5 µM) — lower, 0.584
- SUIT-2 (pancreas, adherent, top dose 2.5 µM) — lower, 0.558
- WM-115 (melanoma, adherent, top dose 2.5 µM) — higher, 0.853
- NB-4 (acute myeloid leukaemia, suspension, top dose 2.5 µM) — lower, 0.491
- 201T (lung adenocarcinoma, adherent, top dose 2.5 µM) — higher, 0.966
- SUP-HD1 (Hodgkin lymphoma, suspension, top dose 2.5 µM) — higher, 0.847
- KYSE-410 (oesophagus, adherent, top dose 2.5 µM) — higher, 0.857
- HO-1-N-1 (head and neck, adherent, top dose 2.5 µM) — higher, 0.952
- RCC-ER (kidney, adherent, top dose 2.5 µM) — higher, 0.926
- KU812 (chronic myeloid leukaemia, suspension, top dose 2.5 µM) — higher, 0.893
- LAMA-84 (chronic myeloid leukaemia, suspension, top dose 2.5 µM) — lower, 0.705
- JHU-011 (head and neck, adherent, top dose 2.5 µM) — lower, 0.77
- SU-DHL-8 (B-cell lymphoma, suspension, top dose 2.5 µM) — higher, 0.786
- H2373 (mesothelioma, adherent, top dose 2.5 µM) — higher, 0.982
- UM-UC-3 (bladder, adherent, top dose 2.5 µM) — higher, 0.869
- RC-K8 (B-cell lymphoma, suspension, top dose 2.5 µM) — higher, 0.993
- MC-CAR (haematopoietic neoplasm, suspension, top dose 2.5 µM) — lower, 0.647
- NCI-H1755 (lung adenocarcinoma, adherent, top dose 2.5 µM) — lower, 0.561
- NCI-H716 (large intestine, suspension, top dose 20 µM) — higher, 0.781
- AsPC-1 (pancreas, adherent, top dose 2.5 µM) — higher, 0.926
- HCT-116 (large intestine, adherent, top dose 2.5 µM) — lower, 0.762
- DSH1 (bladder, adherent, top dose 2.5 µM) — lower, 0.431
- NCI-H1304 (small cell lung carcinoma, suspension, top dose 2.5 µM) — higher, 0.985
- PL18 (pancreas, adherent, top dose 2.5 µM) — higher, 0.98
- HSC-4 (head and neck, adherent, top dose 2.5 µM) — higher, 0.878
- C32 (melanoma, adherent, top dose 2.5 µM) — higher, 0.986
- P31-FUJ (acute myeloid leukaemia, suspension, top dose 2.5 µM) — higher, 0.971
- BCPAP (thyroid, adherent, top dose 2.5 µM) — higher, 0.924
- HCC1599 (breast, suspension, top dose 20 µM) — lower, 0.397
- CAL-85-1 (breast, adherent, top dose 2.5 µM) — lower, 0.518
- SAT (head and neck, adherent, top dose 2.5 µM) — lower, 0.749
- SW13 (adrenal gland, adherent, top dose 2.5 µM) — higher, 0.961
- H513 (mesothelioma, semi-adherent, top dose 2.5 µM) — higher, 0.815
- T98G (glioma, adherent, top dose 2.5 µM) — higher, 0.969
- NCI-H2052 (mesothelioma, adherent, top dose 2.5 µM) — higher, 0.957
- EN (endometrium, adherent, top dose 2.5 µM) — higher, 0.971
- CAL-33 (head and neck, adherent, top dose 2.5 µM) — lower, 0.709
- GI-1 (glioma, adherent, top dose 2.5 µM) — higher, 0.95
- SW954 (urogenital system, adherent, top dose 2.5 µM) — lower, 0.654
- NCI-H460 (large cell lung carcinoma, adherent, top dose 2.5 µM) — higher, 0.99
- TE-6 (oesophagus, adherent, top dose 2.5 µM) — higher, 0.881
- AN3-CA (endometrium, adherent, top dose 2.5 µM) — higher, 0.98
- KASUMI-1 (acute myeloid leukaemia, suspension, top dose 2.5 µM) — lower, 0.68
- CAL-120 (breast, adherent, top dose 2.5 µM) — higher, 0.791
- PANC-08-13 (pancreas, adherent, top dose 2.5 µM) — higher, 0.796
- NCI-H187 (small cell lung carcinoma, suspension, top dose 2.5 µM) — higher, 0.984
- H2731 (mesothelioma, adherent, top dose 2.5 µM) — higher, 0.954
- NCI-H2452 (mesothelioma, adherent, top dose 2.5 µM) — higher, 0.984
- LK-2 (lung squamous cell carcinoma, adherent, top dose 2.5 µM) — higher, 0.982
- LP-1 (myeloma, suspension, top dose 2.5 µM) — higher, 0.979
- SNU-407 (large intestine, adherent, top dose 2.5 µM) — lower, 0.729
- FLO-1 (oesophagus, adherent, top dose 2.5 µM) — higher, 0.835
- NCI-H1869 (lung squamous cell carcinoma, adherent, top dose 2.5 µM) — higher, 0.817
- SCC-9 (head and neck, adherent, top dose 2.5 µM) — lower, 0.415
- COR-L279 (small cell lung carcinoma, suspension, top dose 2.5 µM) — higher, 0.989
- LXF-289 (lung adenocarcinoma, adherent, top dose 2.5 µM) — higher, 0.957
- EW-11 (Ewing sarcoma, adherent, top dose 2.5 µM) — higher, 0.855

Point of comparison: “NB-4 (acute myeloid leukaemia, suspension, top dose 2.5 µM)”, pIC50 6.83. Against it:
- NCI-H838 (lung adenocarcinoma, adherent, top dose 2.5 µM) — lower, < 5.60
- T-T (oesophagus, adherent, top dose 2.5 µM) — lower, < 5.60
- GT3TKB (stomach, adherent, top dose 2.5 µM) — lower, < 5.60
- CCK-81 (large intestine, adherent, top dose 20 µM) — higher, > 7.11
- DB (B-cell lymphoma, suspension, top dose 2.5 µM) — 1.18 log units lower, 5.65
- GI-ME-N (neuroblastoma, adherent, top dose 2.5 µM) — lower, < 5.60
- DAN-G (pancreas, adherent, top dose 2.5 µM) — lower, < 5.60
- EW-1 (Ewing sarcoma, semi-adherent, top dose 2.5 µM) — 0.71 log units lower, 6.12
- P30-OHK (lymphoblastic leukaemia, suspension, top dose 2.5 µM) — within 0.2 log units, 6.99
- KP-2 (pancreas, adherent, top dose 2.5 µM) — lower, < 5.60
- NCI-H2228 (lung adenocarcinoma, adherent, top dose 2.5 µM) — lower, < 5.60
- SBC-5 (small cell lung carcinoma, adherent, top dose 2.5 µM) — lower, < 5.60
- HMV-II (melanoma, adherent, top dose 2.5 µM) — lower, < 5.60
- EW-18 (Ewing sarcoma, suspension, top dose 2.5 µM) — 1.05 log units lower, 5.78
- WM278 (melanoma, adherent, top dose 2.5 µM) — lower, < 5.60
- SK-MEL-3 (melanoma, adherent, top dose 2.5 µM) — lower, < 5.60
- HCC2157 (breast, suspension, top dose 2.5 µM) — lower, < 5.60
- SR (lymphoid neoplasm, suspension, top dose 2.5 µM) — 0.24 log units lower, 6.59
- KYSE-450 (oesophagus, adherent, top dose 2.5 µM) — 1.18 log units higher, 8.01
- U251 (glioma, adherent, top dose 2.5 µM) — lower, < 5.60
- SU-DHL-6 (B-cell lymphoma, suspension, top dose 2.5 µM) — 0.20 log units lower, 6.63
- SU-DHL-10 (B-cell lymphoma, suspension, top dose 2.5 µM) — 0.23 log units lower, 6.60
- SUIT-2 (pancreas, adherent, top dose 2.5 µM) — within 0.2 log units, 6.64
- WM-115 (melanoma, adherent, top dose 2.5 µM) — lower, < 5.60
- 201T (lung adenocarcinoma, adherent, top dose 2.5 µM) — lower, < 5.60
- SUP-HD1 (Hodgkin lymphoma, suspension, top dose 2.5 µM) — 1.06 log units lower, 5.77
- KYSE-410 (oesophagus, adherent, top dose 2.5 µM) — 1.18 log units lower, 5.65
- HO-1-N-1 (head and neck, adherent, top dose 2.5 µM) — lower, < 5.60
- RCC-ER (kidney, adherent, top dose 2.5 µM) — lower, < 5.60
- KU812 (chronic myeloid leukaemia, suspension, top dose 2.5 µM) — lower, < 5.60
- LAMA-84 (chronic myeloid leukaemia, suspension, top dose 2.5 µM) — 0.61 log units lower, 6.22
- JHU-011 (head and neck, adherent, top dose 2.5 µM) — 0.80 log units lower, 6.03
- SU-DHL-8 (B-cell lymphoma, suspension, top dose 2.5 µM) — 0.83 log units lower, 6.00
- H2373 (mesothelioma, adherent, top dose 2.5 µM) — lower, < 5.60
- UM-UC-3 (bladder, adherent, top dose 2.5 µM) — 1.14 log units lower, 5.69
- RC-K8 (B-cell lymphoma, suspension, top dose 2.5 µM) — lower, < 5.60
- MC-CAR (haematopoietic neoplasm, suspension, top dose 2.5 µM) — 0.41 log units lower, 6.42
- NCI-H1755 (lung adenocarcinoma, adherent, top dose 2.5 µM) — 0.20 log units lower, 6.63
- NCI-H716 (large intestine, suspension, top dose 20 µM) — 1.86 log units lower, 4.97
- AsPC-1 (pancreas, adherent, top dose 2.5 µM) — lower, < 5.60
- HCT-116 (large intestine, adherent, top dose 2.5 µM) — 0.76 log units lower, 6.07
- DSH1 (bladder, adherent, top dose 2.5 µM) — within 0.2 log units, 6.99
- NCI-H1304 (small cell lung carcinoma, suspension, top dose 2.5 µM) — lower, < 5.60
- PL18 (pancreas, adherent, top dose 2.5 µM) — lower, < 5.60
- HSC-4 (head and neck, adherent, top dose 2.5 µM) — lower, < 5.60
- C32 (melanoma, adherent, top dose 2.5 µM) — lower, < 5.60
- P31-FUJ (acute myeloid leukaemia, suspension, top dose 2.5 µM) — lower, < 5.60
- BCPAP (thyroid, adherent, top dose 2.5 µM) — lower, < 5.60
- HCC1599 (breast, suspension, top dose 20 µM) — 0.63 log units lower, 6.20
- CAL-85-1 (breast, adherent, top dose 2.5 µM) — within 0.2 log units, 6.75
- SAT (head and neck, adherent, top dose 2.5 µM) — 0.92 log units lower, 5.91
- SW13 (adrenal gland, adherent, top dose 2.5 µM) — lower, < 5.60
- H513 (mesothelioma, semi-adherent, top dose 2.5 µM) — 1.08 log units lower, 5.75
- T98G (glioma, adherent, top dose 2.5 µM) — lower, < 5.60
- NCI-H2052 (mesothelioma, adherent, top dose 2.5 µM) — lower, < 5.60
- EN (endometrium, adherent, top dose 2.5 µM) — lower, < 5.60
- CAL-33 (head and neck, adherent, top dose 2.5 µM) — 0.61 log units lower, 6.22
- GI-1 (glioma, adherent, top dose 2.5 µM) — lower, < 5.60
- SW954 (urogenital system, adherent, top dose 2.5 µM) — 0.45 log units lower, 6.38
- NCI-H460 (large cell lung carcinoma, adherent, top dose 2.5 µM) — lower, < 5.60
- TE-6 (oesophagus, adherent, top dose 2.5 µM) — lower, < 5.60
- AN3-CA (endometrium, adherent, top dose 2.5 µM) — lower, < 5.60
- KASUMI-1 (acute myeloid leukaemia, suspension, top dose 2.5 µM) — 0.53 log units lower, 6.30
- CAL-120 (breast, adherent, top dose 2.5 µM) — 1.01 log units lower, 5.82
- PANC-08-13 (pancreas, adherent, top dose 2.5 µM) — 1.02 log units lower, 5.81
- NCI-H187 (small cell lung carcinoma, suspension, top dose 2.5 µM) — lower, < 5.60
- H2731 (mesothelioma, adherent, top dose 2.5 µM) — lower, < 5.60
- NCI-H2452 (mesothelioma, adherent, top dose 2.5 µM) — lower, < 5.60
- LK-2 (lung squamous cell carcinoma, adherent, top dose 2.5 µM) — lower, < 5.60
- RCC-MF (kidney, adherent, top dose 2.5 µM) — 0.93 log units lower, 5.90
- LP-1 (myeloma, suspension, top dose 2.5 µM) — lower, < 5.60
- SNU-407 (large intestine, adherent, top dose 2.5 µM) — 0.73 log units lower, 6.10
- FLO-1 (oesophagus, adherent, top dose 2.5 µM) — lower, < 5.60
- NCI-H1869 (lung squamous cell carcinoma, adherent, top dose 2.5 µM) — 1.04 log units lower, 5.79
- SCC-9 (head and neck, adherent, top dose 2.5 µM) — 0.24 log units higher, 7.07
- COR-L279 (small cell lung carcinoma, suspension, top dose 2.5 µM) — lower, < 5.60
- LXF-289 (lung adenocarcinoma, adherent, top dose 2.5 µM) — lower, < 5.60
- EW-11 (Ewing sarcoma, adherent, top dose 2.5 µM) — lower, < 5.60
